From the RNAGym collection of RNA variant scans (doi:10.1073/pnas.2313332121)
Variants at the floor of the assay are shown more often than the library holds them.

B1: TPR 5TU (parent)
chain: GGAUCUUCUCGAUCUAACAAAAAAGACAAAUCUGCCACAAAGCUUGAGAGCAUCUUCGGAUGCAGAGGCGGCAGCCUUCGGUGGCGCGAUAGCGCCAACGUUCUCAACUAUGACACGCAAAACGCGUGCUCCGUUGAAUGGAGUUUAUCAUG

Variants of: B1
Assay: polymerase ribozyme fitness, log enrichment relative to wild type (log ratio); higher = more active; in vitro selection for triplet polymerase activity
Outline: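 Mutant libraries of each subunit of a heterodimeric triplet polymerase ribozyme were built by PCR and transcribed. Each library went through one round of in vitro selection in triplicate: annealing with biotinylated primer, partner subunit and triplets, frozen incubation at −7 °C, gel excision of extended constructs, streptavidin-bead capture and RT-PCR. Input and output libraries were Illumina-sequenced; only genotypes with ≥10 input reads and ≥1 read per output were kept. Fitness is log2(genotype enrichment/wild-type enrichment), using inverse-variance-weighted replicate averages.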

Variant	polymerase ribozyme fitness (log ratio)
C85U G143C	-1.66
C85U G94C G143A	-1.78
U90C A107U C118G G133C U135G	≤ -4.2
G88C G100C U139A	≤ -4.2
C85U C99U	-2.35
C85U C99G	-1.07
G88A C105A G133A U135C	≤ -4.2
U90C U109G C125G U144C	≤ -4.2
C85U A91G G126C G140U	≤ -4.2
C87U C108U U139A U146A	≤ -4.2
C85G U90G	≤ -4.2
A89C G92U	-1.92
G88A C108U	≤ -4.2
A89U C95U A107U G133C	≤ -4.2
C85U A97C G112C G133C	≤ -4.2
U90G A122U C125A A137U	≤ -4.2
C85U U102G C103A A137G	≤ -4.2
C87U C96A	-1.2
C87G U90C	-4.07
C85U C95U C116A G117A A119G	≤ -4.2
C87G A89U C96U	≤ -4.2

Variant	polymerase ribozyme fitness (log ratio)
G86A C114A	-4.1
C87A G126A	-4.04
G86U C95A C96U A113U U148G C149G	≤ -4.2
U90G G94U	≤ -4.2
G86U C87U U139C A142G	≤ -4.2
C85U A120G	-1.65
C85U U101G C125U	-0.351
C87A A119G	≤ -4.2
C87A G143U	≤ -4.2
C85G A119G	-1.7
C85G C114G G141U	-4.17
G88U C105U	-3.83
C87U U90G C105U	≤ -4.2
G88C C116U A150C	≤ -4.2
A89G A110U U151A	-3.58
G86C A142C	≤ -4.2
G86C A142G	≤ -4.2
G86A C103G G133C G141U	≤ -4.2
G86C C131G	≤ -4.2
C85U G94A A107G	≤ -4.2
A89G G92C A97C C114U	-3.82

Variant	polymerase ribozyme fitness (log ratio)
G86U C96A A98G	≤ -4.2
C87A G112U	≤ -4.2
C85G C96U C99G C114A A115U	≤ -4.2
C87U G141C	-1.72
C87U U109C G133U	≤ -4.2
C85U G136C U151C	≤ -4.2
C85G C87A A91U G124C	≤ -4.2
C85U C96G U135C	-2.57
C87U G88A U144C	≤ -4.2
U90G C93G G140A U148C	≤ -4.2
C85G C95A C103A	≤ -4.2
C85G G136A	-1.31
C87A A89U	≤ -4.2
C85U C95A U127G	-3.88
C87A C93G C108G	≤ -4.2
C85U C108U	-3.1
C85U C108G	≤ -4.2
C87G C99U C116G	-3.37
C87G A89C U102A C105G	≤ -4.2
C85G G143U U146C U148G	≤ -4.2
C87U A120U C123G	-1.06

Variant	polymerase ribozyme fitness (log ratio)
C87A G94U C118U A138G	≤ -4.2
C87U A89U	-1.2
C87U C99U U101G A137C U145G	≤ -4.2
C85G A121U U151G	≤ -4.2
G88A C93A C123U G126U G133U G140U	≤ -4.2
G86U A138U	≤ -4.2
C85G C95A C99G C103G G124U	≤ -4.2
C87G G88U U148C	≤ -4.2
G88U G143C	≤ -4.2
C87U C103G A147G A150G G152U	≤ -4.2
G86U U139A	≤ -4.2
A91C A98G A122U U144C A147U A150C	≤ -4.2
G86U C123A	-1.99
C87A C125A U148G	≤ -4.2
G88C U101C A113C	≤ -4.2
C87A C103U C108A A110C C132A	≤ -4.2
G88U C95G	-3.65
C87G A97G	≤ -4.2
C87U U102C C116G U127G	≤ -4.2
C85U G88C G117U A119U G141A	≤ -4.2
C87G G140A	≤ -4.2
